From the supplement of paper PMC10338343 come the findings set out here.

± gives the standard deviation. Over roughly 6,600 sequences, “pre-steady-state target cleavage rate” has its median near 0.07; the highest 2% begin near 0.72. This is a selection; strong and weak results do not stand in their true shares.
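Further: 1 nM active piRISC with 0.1 nM target library at 33 °C single turnover.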

The test system of this test is MIWI (PIWIL1) piRISC loaded with Kctd7 piRNA (30 nt). As to the kind of experiment: pre-steady-state target cleavage rate (min^-1); MIWI and MILI are mouse PIWI proteins and EfPiwi is from a freshwater sponge; tags in brackets are library labels; higher = faster piRNA-guided slicing of the target. The following applies: guide: Kctd7 piRNA 5'p-UGUUAAUCUCUCAGAGAAGGUGACAGUGAU; auxiliary factor: 500 nM mouse GTSF1. In short, it runs like this: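 At 33 °C in HEPES–potassium acetate buffer, a transcribed, DNA-blocked target RNA library […] was exposed for 0–8 or 0–960 min to 1 nM active affinity-purified piRISC carrying a single synthetic guide, with or without 500 nM GTSF1 partner protein. Uncleaved targets were sequenced and normalised to depth and to weakly complementary targets. With three trials pooled and k3 capped at 0.0001 min^-1, a burst-and-steady-state fit produced the pre-steady-state cleavage rate.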
With UAGUGACAGUGUUUCUCUGAGAGAUUAACA, the “pre-steady-state target cleavage rate” value is 0.00493 ± 0.0019.

On to UAGUGUGUCACCUACUCUGAGAGAUUUACA, for which the “pre-steady-state target cleavage rate” value came out at 0.428 ± 0.064.

Consider AUCACUGUCACGUUCUCUGAGAGAUUAUCA, for which the “pre-steady-state target cleavage rate” value was found to be 0.233 ± 0.029.

For UAGUCUGUGACCUUCUCUGAGAGAAUAACA, the “pre-steady-state target cleavage rate” value came to 0.196 ± 0.03.

In the case of UACACUGUCACCAUCUCUGAGAGAUAAACA, the “pre-steady-state target cleavage rate” value worked out at 0.208 ± 0.018.

UUCACUGUGUCCUUCUCUGAGAGAUUAACA: the “pre-steady-state target cleavage rate” value came out at 0.429 ± 0.028.

UAGUGACAGUCCUUCUCUGAGAGAAUAACA: the “pre-steady-state target cleavage rate” value was 0.00638 ± 0.0034.

As to UAGUGACACACCUUCUCUGAGAUAUUAACA, the “pre-steady-state target cleavage rate” value stood at 0.155 ± 0.026.

With UAGUGAGUCACCUUCUCUGUGAGAUUAAGA, the “pre-steady-state target cleavage rate” value is 0.0999 ± 0.021.

Take UAGUGACAGUGCUGUCUCUGAGAGAUUAACA: the “pre-steady-state target cleavage rate” value was 0.00763 ± 0.0028.

As to UAGUGACACCACCUUCUCUGAGAGAUUAACA, the “pre-steady-state target cleavage rate” value was determined as 0.527 ± 0.056.

Consider UAGUCUGUCACCAAGUCUGAGAGAUUAAGA, for which the “pre-steady-state target cleavage rate” value was found to be 0.00396 ± 0.0037.

With UAGUGUGUCACCUUCUCUGAGAGUAUUAACA, the “pre-steady-state target cleavage rate” value was determined as 0.285 ± 0.036.

UAGACUGUCACGUUCUCUGAGACAUUAACA: the “pre-steady-state target cleavage rate” value turned out to be 0.00354 ± 0.0028.

Regarding UAGAGAGUCACCUUCUCUGAGAGAUUAUGA, the “pre-steady-state target cleavage rate” value amounted to 0.106 ± 0.025.

Regarding UUCAGUGUGACCUUCUCUGAGAGAUUAACA, the “pre-steady-state target cleavage rate” value came out at 0.483 ± 0.025.

In the case of AAGACUGUCACCUUCUCUGAGAGAUAUUGA, the “pre-steady-state target cleavage rate” value amounted to 0.00378 ± 0.0034.

Turning to UAGACACUCACCUUCUCUGAGAGAUUAAGA, the “pre-steady-state target cleavage rate” value came to 0.144 ± 0.025.

Regarding UAGUGACUCACCUACUCUGAGAGAUUAACA, the “pre-steady-state target cleavage rate” value came to 0.275 ± 0.026.

Turning to AUCACUGUCACCUACUCUGAGAGAUUUUGA, the “pre-steady-state target cleavage rate” value is 0.0266 ± 0.0097.

For UAGUGUGUCUCCUUCUCUGAGAGAAUAACA, the “pre-steady-state target cleavage rate” value came to 0.0739 ± 0.015.

As to UAGUGACUCACCUUCUCUGAGAGAUGUAACA, the “pre-steady-state target cleavage rate” value was 0.206 ± 0.026.

Turning to UUCAGCUGUCACCUUCUCUGAGAGAUUAACA, the “pre-steady-state target cleavage rate” value is 0.681 ± 0.037.

As to UACACAGUCACCUUCUCUGAGUGAUUAACA, the “pre-steady-state target cleavage rate” value is 0.0402 ± 0.013.

As for UAGUGAGUCACCUUCUCAGAGAGAUUAAGA, the “pre-steady-state target cleavage rate” value amounted to 0.0918 ± 0.02.

As for UAGUGAGUCACCUUCACUGAGAGAUUAUGA, the “pre-steady-state target cleavage rate” value stood at 0.0322 ± 0.011.

Take UAGUGUGUCACCUUCUCUGAGACAUUAUGA: the “pre-steady-state target cleavage rate” value turned out to be 0.0105 ± 0.0046.

UACACUGACACCUACUCUGAGAGAUUAACA: the “pre-steady-state target cleavage rate” value is 0.478 ± 0.046.

On to UAGACUGUCACCUUCUGUGAGAGAUUAAGA, for which the “pre-steady-state target cleavage rate” value was 0.239 ± 0.037.

For UAGUGAGUCACGUUCUCUCAGAGAUUAACA, the “pre-steady-state target cleavage rate” value came out at 0.0565 ± 0.0084.

Regarding UAGUGACAGUCCUUCUCUGAGAGUUUAACA, the “pre-steady-state target cleavage rate” value amounted to 0.027 ± 0.0047.

With AUCACUGUGACCUUCUGUGAGAGAUUAACA, the “pre-steady-state target cleavage rate” value is 0.503 ± 0.027.

For the sequence UAGUGACAGUCCUUCUCUGAGAGAUUUUCA, the “pre-steady-state target cleavage rate” value worked out at 0.00383 ± 0.0028.

Take UAGUGAGUCACCUUCUCUGACAGAAUAACA: the “pre-steady-state target cleavage rate” value is 0.0397 ± 0.0095.

Turning to UAGUCUCUCACCUUCACUGAGAGAUUAACA, the “pre-steady-state target cleavage rate” value came to 0.0184 ± 0.0041.

For UAGACUGUCUCCUUCUCUGAGUGAUUAACA, the “pre-steady-state target cleavage rate” value is 0.0159 ± 0.0035.

On to UUCACUGACACCUUCACUGAGAGAUUAACA, for which the “pre-steady-state target cleavage rate” value came to 0.425 ± 0.022.

For the sequence UAGUGACUCAACUUCUCUGAGAGAUUAACA, the “pre-steady-state target cleavage rate” value is 0.105 ± 0.014.

Turning to UAGUGUGUCACCUUCUCUGACAGUUUAACA, the “pre-steady-state target cleavage rate” value stood at 0.103 ± 0.015.

Consider UAGUGUGUCACCUUCUCAGAGACAUUAACA, for which the “pre-steady-state target cleavage rate” value is 0.164 ± 0.027.

With UACACACUCACCUUCUCUGAGAGAUUUUGA, the “pre-steady-state target cleavage rate” value was determined as 0.0846 ± 0.028.

Take AUCACUGUCACCUUGUCUGAGAGUUUAACA: the “pre-steady-state target cleavage rate” value worked out at 0.745 ± 0.15.

Turning to UAGUGUGUCACCUUCUCUGAGACAUUUACA, the “pre-steady-state target cleavage rate” value was found to be 0.028 ± 0.0097.

Regarding UUCACUGUCACCUUCUCUCACAGAUUAACA, the “pre-steady-state target cleavage rate” value came out at 0.0159 ± 0.0041.

For the sequence UAGACUGUCACCUUCACUGACAGAUUAACA, the “pre-steady-state target cleavage rate” value is 0.235 ± 0.023.

For UAGUGACAGACCUUCUCUGAGAGAUUUUCA, the “pre-steady-state target cleavage rate” value was determined as 0.0186 ± 0.0066.

Turning to UAGACUGUCACCUUCUCUGAGAGAUCUAACA, the “pre-steady-state target cleavage rate” value came out at 0.245 ± 0.034.

With UAGUGACUGACCUUCUCUGAGACAUUAACA, the “pre-steady-state target cleavage rate” value turned out to be 0.025 ± 0.0064.

Take UAGACUGUCACCUUCUCUCAGAGAUAAACA: the “pre-steady-state target cleavage rate” value stood at 0.0545 ± 0.0077.

As to UAGUGACACACCUUCUCUGAGUGAUUAACA, the “pre-steady-state target cleavage rate” value was found to be 0.0318 ± 0.0051.

Consider UACACUGUCACCUUCUCUGAGGAUUAACA, for which the “pre-steady-state target cleavage rate” value worked out at 0.113 ± 0.042.

With UAGUCUGUCACCAACUCUGAGAGAUUAUGA, the “pre-steady-state target cleavage rate” value is 0.0033 ± 0.0031.

On to UUCACUGUCACCUUCUGUCAGAGAUUAACA, for which the “pre-steady-state target cleavage rate” value amounted to 0.0135 ± 0.0046.

In the case of UAGUCUGUCACCUUCUCUGAGAGUAUAUGA, the “pre-steady-state target cleavage rate” value turned out to be 0.0111 ± 0.0053.

As for UAGUCUGUCACCUUCUGUGAGACAUUAACA, the “pre-steady-state target cleavage rate” value came to 0.141 ± 0.02.

On to UACACCUGUCACCUUCUCUGAGAGAUUAACA, for which the “pre-steady-state target cleavage rate” value was 0.79 ± 0.051.

In the case of UAGACGUGUCACCUUCUCUGAGAGAUUAACA, the “pre-steady-state target cleavage rate” value was 0.649 ± 0.039.

As to UAGUGACAGUGCUUCUCUGAGAGAUUAUCA, the “pre-steady-state target cleavage rate” value was 0.0119 ± 0.0035.

For UAGUGACUCACCUUCCCUGAGAGAUUAACA, the “pre-steady-state target cleavage rate” value turned out to be 0.179 ± 0.033.

As to UAGUGACUCACCAUCUCUGAGACAUUAACA, the “pre-steady-state target cleavage rate” value stood at 0.0411 ± 0.005.

As for UACACUGUGACCUUCUCUGAGAGAUUAUGA, the “pre-steady-state target cleavage rate” value came to 0.0523 ± 0.012.

Take UUCACUGUCACCUUUCUGAGAGAUUAACA: the “pre-steady-state target cleavage rate” value amounted to 0.506 ± 0.026.

UAGUGUGUCACCUUGUCUGAGAGAUUAAGA: the “pre-steady-state target cleavage rate” value came to 0.00865 ± 0.005.

For UAGACUGUCACGUUCACUGAGAGAUUAACA, the “pre-steady-state target cleavage rate” value came to 0.506 ± 0.028.

As to UAGUGACUGACCUUCUCUGUGAGAUUAACA, the “pre-steady-state target cleavage rate” value was 0.055 ± 0.0077.

Take UACACUGUCACCUUCUCUGAGAGAUAAAGA: the “pre-steady-state target cleavage rate” value stood at 0.0476 ± 0.015.

Take UAGUGACUCUCCUUCUCUGAGAGUUUAACA: the “pre-steady-state target cleavage rate” value is 0.035 ± 0.007.

As to AUCACUGUCACCUUCUCUGAGAGAUGAACA, the “pre-steady-state target cleavage rate” value came to 0.186 ± 0.03.

Regarding UAGUGUUGUCACCUUCUCUGAGAGAUUAACA, the “pre-steady-state target cleavage rate” value stood at 0.629 ± 0.029.

For UAGUCUGUCACCUUCUCUGAGAGUUUAACA, the “pre-steady-state target cleavage rate” value came to 0.365 ± 0.053.

Take UAGUCUGUCACCUUCUCUCAGUGAUUAACA: the “pre-steady-state target cleavage rate” value stood at 0.00581 ± 0.0033.

Consider UUCACUGUCACCUUCUCUGAGACAUUUACA, for which the “pre-steady-state target cleavage rate” value came to 0.067 ± 0.018.

Regarding UACACUGUCACCUUCUCUGAGAGAUCAACA, the “pre-steady-state target cleavage rate” value came out at 0.26 ± 0.038.

Consider UUCACUGUGACCUUCUCUGAGAGAUUAUGA, for which the “pre-steady-state target cleavage rate” value was found to be 0.119 ± 0.021.

As to UAGUCUGUCACCUUCUCUGUGACAUUAACA, the “pre-steady-state target cleavage rate” value was determined as 0.0475 ± 0.0087.

Consider UACACUGUCACGUUCUCUGAGAGUUUAACA, for which the “pre-steady-state target cleavage rate” value was 0.119 ± 0.017.

Take AUCACUGUCACCUUCUCUGUCAGAUAUUGA: the “pre-steady-state target cleavage rate” value turned out to be 0.0149 ± 0.0076.

As to UAGACUGUCACGUUCUCUGAGAGAUAAACA, the “pre-steady-state target cleavage rate” value came out at 0.19 ± 0.024.

With UAGUGACAGUCUCUUCUCUGAGAGAUUAACA, the “pre-steady-state target cleavage rate” value was found to be 0.25 ± 0.034.

Regarding UAGUGUGUCACCAUCUCAGAGAGAUUAACA, the “pre-steady-state target cleavage rate” value came to 0.106 ± 0.011.

Consider UAGUGACUCACCUUCACUGAGAGAUUUACA, for which the “pre-steady-state target cleavage rate” value was found to be 0.219 ± 0.038.

On to UAGUGACAGUGCCUUCUCUGAGAGAUUAACA, for which the “pre-steady-state target cleavage rate” value is 0.356 ± 0.034.

Consider UAGUGACAGACCUUCUCAGAGAGAUUAAGA, for which the “pre-steady-state target cleavage rate” value stood at 0.00725 ± 0.0031.

As to UAGUGUGUCACCUUCACUGUGAGAUUAACA, the “pre-steady-state target cleavage rate” value is 0.108 ± 0.0088.

In the case of UACACAGUCACCUUCUCUGAGAGUUUAACA, the “pre-steady-state target cleavage rate” value was determined as 0.515 ± 0.11.

Regarding UAGUCCGUCACCUUCUCUGAGAGAUUAACA, the “pre-steady-state target cleavage rate” value is 0.662 ± 0.036.

As to UAGUGACAGUGCUUCUGUGAGAGAUUAUCA, the “pre-steady-state target cleavage rate” value was determined as 0.00492 ± 0.0043.

Consider UAGUGACUCACCUUCUCUCAGAGAUUAACA, for which the “pre-steady-state target cleavage rate” value turned out to be 0.0561 ± 0.0067.

Take UACACUGUCACCUCUCUCUGAGAGAUUAACA: the “pre-steady-state target cleavage rate” value was 0.425 ± 0.029.

Turning to UAGUGACACACCUUCUCUGAGAGACUUAACA, the “pre-steady-state target cleavage rate” value came out at 0.106 ± 0.017.

UAGUGACAGACCUUCUGUGAGAGAUUAACA: the “pre-steady-state target cleavage rate” value was determined as 0.0705 ± 0.013.

In the case of UAGUGACAGUGGUUCUCUGUCUGAUUAACA, the “pre-steady-state target cleavage rate” value was below 0.0001.
